Assay results reported in the antibiotic and cytotoxicity screens of Wong et al. (2023).
This is one part of the list.

Key:
HSkMC = human skeletal muscle cells; assay: cytotoxicity call (relative viability < 0.9); conditions: 10 µM
HepG2 = assay: cytotoxicity call (relative viability < 0.9); conditions: 10 µM
S. aureus RN4220 = assay: growth inhibition call (relative growth <= 0.2); conditions: 50 µM

Compound | cytotoxicity call (HSkMC) | cytotoxicity call (HepG2) | growth inhibition call (S. aureus RN4220)
O=C(CN1CCOCC1)NCC[C@@H]1CC[C@@H](NC(=O)c2ccc3c(c2)OCO3)[C@H](CO)O1 | inactive | inactive | inactive
Cc1noc(C)c1S(=O)(=O)Nc1ccc2c(c1)C(=O)N([C@@H](C)CO)C[C@@H](C)[C@@H](CN(C)Cc1ccccc1)OCCCC[C@@H](C)O2 | inactive | inactive | inactive
COc1ccc(-c2c(C)oc3ccc(Cl)cc23)cc1 | inactive | active | inactive
C[C@@H]1CN([C@@H](C)CO)C(=O)c2cc(C#CC3(O)CCCC3)cnc2O[C@@H]1CN(C)C(=O)Cc1cccnc1 | inactive | inactive | inactive
COCCCNC(=O)[C@@]1(Sc2ccc(C)cc2)CC(=O)N(Cc2ccccc2C(F)(F)F)[C@@H]1c1ccc(CO)cc1 | inactive | inactive | inactive
COc1ccc(NC(=O)Nc2ccc3c(c2)C(=O)N([C@@H](C)CO)C[C@H](C)[C@H](CN(C)C(=O)Nc2ccc(F)cc2)OCCCC[C@H](C)O3)cc1 | inactive | inactive | inactive
[N-]=[N+]=Nc1ccccc1[C@H]1OC(c2ccc(OCCCO)cc2)=N[C@@]1(CCS(=O)(=O)c1ccccc1)C(=O)NC[C@@H](O)CO | inactive | inactive | inactive
CN(C)C(=O)C[C@H]1C=C[C@H](NC(=O)C2CC2)[C@H](CO)O1 | inactive | inactive | inactive
Cc1cc(O)n(C[C@@H](C)O)c(=O)c1C#N | inactive | inactive | inactive
O=C(O)C(O)C(O)C(O)C(O)C(=O)O (configuration not stated) | inactive | inactive | inactive
Cc1cc(O)c(C=O)c(O)c1C(=O)O | inactive | inactive | inactive
COc1cccc(C#Cc2cnc3c(c2)C(=O)N([C@H](C)CO)C[C@@H](C)[C@H](CN(C)C(=O)C2CCOCC2)O3)c1 | inactive | inactive | inactive
CCNC(=S)N1CCOCC1 | inactive | inactive | inactive
C[C@@H]1CN([C@@H](C)CO)S(=O)(=O)c2ccc(C#CCN(C)C)cc2O[C@H]1CN(C)C(=O)Nc1ccccc1F | inactive | inactive | inactive
C[C@@H]1CN([C@@H](C)CO)C(=O)c2c(c3ccccc3n2C)-c2ccccc2CO[C@H]1CN(C)C(=O)CCC(F)(F)F | inactive | inactive | inactive
COCC#Cc1ccc2c(c1)O[C@H](CN(C)S(=O)(=O)c1cccc(F)c1)[C@H](C)CN([C@H](C)CO)S2(=O)=O | inactive | inactive | inactive
COCC(=O)N1CC(=O)N2[C@@H](CO)[C@H](c3ccc(C#Cc4cccnc4)cc3)[C@@H]2C1 | inactive | inactive | inactive
COc1cc(OC)nc(N)n1 | inactive | inactive | inactive
O=S1(=O)C[C@H](NCCO)[C@@H](O)C1 | inactive | inactive | inactive
COc1ccc(NC(=O)Nc2ccc3c(c2)C(=O)N([C@@H](C)CO)C[C@@H](C)[C@H](CN(C)S(=O)(=O)c2ccc(C)cc2)OCCCC[C@H](C)O3)cc1 | inactive | inactive | inactive
CCCCCCCCNC(C)C(O)c1ccc(SC(C)C)cc1 (configuration not stated) | active | active | inactive
C[C@H]1CN([C@@H](C)CO)C(=O)c2cccc(NC(=O)NC3CCCCC3)c2O[C@H]1CN(C)Cc1ccc(Cl)c(Cl)c1 | inactive | inactive | inactive
CCC(=O)O.[NaH] | inactive | inactive | inactive
O=C1c2ccccc2[C@](Cc2ccccc2I)(C(=O)NCC(F)(F)F)[C@H](c2ccc(CO)cc2)N1C1CCCCC1 | inactive | inactive | inactive
COc1ccc(CN(C)C[C@@H]2OCCCC[C@H](C)Oc3ccc(NS(=O)(=O)c4cccs4)cc3C(=O)N([C@@H](C)CO)C[C@@H]2C)cc1 | inactive | inactive | inactive
C[C@@H]1CN([C@H](C)CO)C(=O)c2cccc(NC(=O)NC3CCCCC3)c2O[C@H]1CN(C)C(=O)Nc1cccc2ccccc12 | inactive | inactive | inactive
C[C@@H]1CCCCO[C@@H](CN(C)S(=O)(=O)c2ccc(Cl)cc2)[C@@H](C)CN([C@@H](C)CO)C(=O)c2cc(NC(=O)Cc3ccccc3)ccc2O1 | inactive | inactive | inactive
CCNC(=O)C[C@H]1CC[C@@H]2[C@H](COc3ccc(NS(=O)(=O)c4ccccc4C)cc3C(=O)N2C)O1 | inactive | inactive | inactive
O=C1O[C@H](c2ccccc2)[C@H](c2ccccc2)N2[C@H]1[C@@H](C(=O)N1CCCCCCC1)[C@]1(C(=O)Nc3ccc(C#CCCO)cc31)[C@H]2c1ccc(O)cc1 | inactive | inactive | inactive
